Read-outs that look alike come from different tables or passages of the source. These are yes or no findings as the source states them, for the method shown. For some assays here: Binding seen in cells or lysates may run through a third protein. Some binding calls cover weakened binding; strength is not graded here. For some assays here: Sequences can lack the tags named with a protein. One block for each molecule: values may come before it.
Columns and labels:
[1] = target: T1, CaV3-Myc (caveolin-3, Myc-tagged) (UniProt P56539); test: co-IP; Flag-tagged MG53 (wild type or S255A) with p85-PI3K-Myc or CaV3-Myc in HEK293 cells
T1 sequence: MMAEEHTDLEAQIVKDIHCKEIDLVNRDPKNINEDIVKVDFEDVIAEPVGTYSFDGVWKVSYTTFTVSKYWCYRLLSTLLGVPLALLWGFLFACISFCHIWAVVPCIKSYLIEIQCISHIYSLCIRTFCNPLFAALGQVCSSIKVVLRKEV

Amino acid sequences for entries named in this document (tags omitted).
UniProt P35568: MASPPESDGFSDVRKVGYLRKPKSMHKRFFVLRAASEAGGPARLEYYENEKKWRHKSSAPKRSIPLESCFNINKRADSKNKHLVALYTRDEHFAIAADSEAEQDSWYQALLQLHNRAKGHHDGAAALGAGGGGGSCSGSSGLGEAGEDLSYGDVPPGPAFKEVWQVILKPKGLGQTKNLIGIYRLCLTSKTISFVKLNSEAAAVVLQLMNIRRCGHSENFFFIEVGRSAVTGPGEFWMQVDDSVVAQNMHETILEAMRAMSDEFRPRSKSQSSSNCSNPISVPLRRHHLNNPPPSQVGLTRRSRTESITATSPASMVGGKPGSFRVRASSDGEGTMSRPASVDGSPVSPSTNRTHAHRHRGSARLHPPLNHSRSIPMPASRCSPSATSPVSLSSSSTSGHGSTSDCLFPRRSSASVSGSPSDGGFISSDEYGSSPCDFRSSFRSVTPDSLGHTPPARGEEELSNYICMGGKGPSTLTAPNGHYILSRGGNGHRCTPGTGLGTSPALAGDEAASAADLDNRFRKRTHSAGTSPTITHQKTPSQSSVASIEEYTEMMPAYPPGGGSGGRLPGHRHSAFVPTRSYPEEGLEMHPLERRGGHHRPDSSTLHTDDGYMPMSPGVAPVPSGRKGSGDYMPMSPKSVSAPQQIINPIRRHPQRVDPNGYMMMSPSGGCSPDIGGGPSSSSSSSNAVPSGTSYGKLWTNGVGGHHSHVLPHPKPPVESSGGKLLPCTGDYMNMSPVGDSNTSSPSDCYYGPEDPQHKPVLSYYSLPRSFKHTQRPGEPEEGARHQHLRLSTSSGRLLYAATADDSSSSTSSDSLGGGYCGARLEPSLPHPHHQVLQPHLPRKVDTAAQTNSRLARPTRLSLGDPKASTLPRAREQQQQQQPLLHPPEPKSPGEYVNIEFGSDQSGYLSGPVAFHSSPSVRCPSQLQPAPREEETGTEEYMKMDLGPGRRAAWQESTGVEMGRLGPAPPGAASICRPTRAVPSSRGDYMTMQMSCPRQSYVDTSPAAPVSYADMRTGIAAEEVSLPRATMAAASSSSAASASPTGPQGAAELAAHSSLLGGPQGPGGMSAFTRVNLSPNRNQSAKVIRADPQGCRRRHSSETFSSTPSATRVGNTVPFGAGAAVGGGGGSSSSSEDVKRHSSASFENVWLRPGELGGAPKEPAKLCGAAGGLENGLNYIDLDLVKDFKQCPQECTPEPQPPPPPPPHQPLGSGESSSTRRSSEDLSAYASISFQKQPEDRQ

[2] = target: T2, Myc-tagged MG53-S255A mutant (human) (UniProt Q6ZMU5); test: co-IP; IRS1 co-expressed with Myc-tagged MG53 (wild type or S255A) in HEK293 cells
T2 sequence: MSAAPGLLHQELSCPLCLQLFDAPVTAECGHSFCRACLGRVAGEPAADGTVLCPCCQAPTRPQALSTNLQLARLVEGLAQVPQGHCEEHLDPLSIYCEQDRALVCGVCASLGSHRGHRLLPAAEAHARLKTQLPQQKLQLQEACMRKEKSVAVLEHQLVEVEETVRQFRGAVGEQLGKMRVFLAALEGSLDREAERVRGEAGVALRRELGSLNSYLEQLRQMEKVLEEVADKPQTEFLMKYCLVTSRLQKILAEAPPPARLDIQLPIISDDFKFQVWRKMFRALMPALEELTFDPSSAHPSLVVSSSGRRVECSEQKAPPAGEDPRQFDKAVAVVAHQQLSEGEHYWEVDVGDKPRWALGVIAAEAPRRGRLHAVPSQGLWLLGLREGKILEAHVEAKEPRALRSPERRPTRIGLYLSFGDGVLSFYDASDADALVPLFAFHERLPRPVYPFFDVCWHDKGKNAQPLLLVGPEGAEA

[3] = target: IRS1 (insulin receptor substrate 1), immobilized on the SPR chip (UniProt P35568); test: SPR; IRS1 immobilized on the chip; MG53-WT or MG53-S255A injected at indicated concentrations; both purified
[4] = target: T1, CaV3-Myc (caveolin-3, Myc-tagged); test: co-IP; Flag-tagged MG53 (wild type or S255A) with p85-PI3K-Myc or CaV3-Myc in HEK293 cells; remark: listed apart in the source
[5] = target: IRS1 (insulin receptor substrate 1), immobilized on the SPR chip (UniProt P35568); test: SPR; IRS1 immobilized on the chip; MG53-WT or MG53-S255A injected at indicated concentrations; both purified; remark: listed apart in the source

Molecule: Flag-tagged wild type MG53 (from UniProt Q6ZMU5 1-477)
binding [1]: binds

Molecule: recombinant human MG53, wild type (rhMG53-WT) (from UniProt Q6ZMU5 1-477)
binding [3]: binds

B1: Flag-tagged S255A mutant of MG53 (protein, UniProt Q6ZMU5 1-477)
chain: T2 sequence
binding [4]: binds

The next lines start with the values.

binding [2]: no binding
Molecule: IRS1 (insulin receptor substrate 1), co-expressed in HEK293 cells (from UniProt P35568 1-1242)

binding [5]: no binding
B2: recombinant human MG53-S255A mutant (rhMG53-S255A) (protein, UniProt Q6ZMU5 1-477)
chain: T2 sequence

Reference: PMC9770150
